Laboratory results reported in PubChem BioAssay AID360 (National Center for Advancing Translational Sciences (NCATS), 2006).
Hit rate of the full screen: of about 48,000 compounds, about 550 (1.1%) were called active. Not shown: some 4% with an inconclusive outcome. Cut-off read from the data, not from the text of the source: active = potency below about 15 µM; inconclusive = mostly about 16 µM to 33 µM; inactive = weaker than that. The list shows a part of the results.

biological target: Lysosomal acid glucosylceramidase (Homo sapiens) (UniProt P04062); assay: Glucocerebrosidase; settings: purified enzyme, resorufin glucoside fluorescence (screen aimed at inhibitors), 20 min;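 note: the screen sought inhibitors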
Summary of the method: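 Normal human glucocerebrosidase (0.2 nM final) was assayed with resorufin β-D-glucopyranoside (30 uM final) in 50mM citric acid/KH2PO4, 10mM sodium taurocholate, 0.01% tween-20, pH 5.9. Compounds were titrated; fluorescence (Ex 548, Em 600) read after 20 min at RT.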
Potency is the fitted concentration of half-maximal effect.

UniProt P04062, sequence (P04062 whole entry, looked up): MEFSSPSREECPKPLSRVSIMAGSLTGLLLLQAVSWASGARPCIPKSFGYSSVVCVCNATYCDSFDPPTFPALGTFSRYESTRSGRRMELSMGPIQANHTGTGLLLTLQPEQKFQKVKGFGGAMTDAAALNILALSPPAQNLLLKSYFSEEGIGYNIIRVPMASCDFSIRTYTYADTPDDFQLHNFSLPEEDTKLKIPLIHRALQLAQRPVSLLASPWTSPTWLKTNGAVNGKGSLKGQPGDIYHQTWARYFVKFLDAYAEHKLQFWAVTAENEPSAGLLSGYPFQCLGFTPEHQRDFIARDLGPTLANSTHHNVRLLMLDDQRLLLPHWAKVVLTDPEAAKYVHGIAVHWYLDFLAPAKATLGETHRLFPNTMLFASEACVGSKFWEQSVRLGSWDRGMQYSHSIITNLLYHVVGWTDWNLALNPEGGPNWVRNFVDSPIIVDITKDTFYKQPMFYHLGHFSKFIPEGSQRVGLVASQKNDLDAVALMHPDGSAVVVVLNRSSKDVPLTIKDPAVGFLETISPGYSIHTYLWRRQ

Potency, inactive:
Nc1nc(SCC(=O)Nc2ccc(Br)cc2F)n[nH]1 > 76.9 µM
COc1ccc(C(OC(=O)c2ccco2)C(=O)NCC2CCCO2)cc1 (stereo unspecified) > 76.9 µM
c1cnn(-c2cc(N3CCOCC3)ncn2)c1 > 76.9 µM
C/C(Cl)=C/CN1C(=O)C2C3C=CC(C3)C2C1=O (stereo unspecified) > 76.9 µM
COc1cc(OC)c(C2C3=C(CCCC3=O)Nc3nc4ccccc4n32)cc1OC (stereo unspecified) > 76.9 µM
COc1ccc(C(=O)COC(=O)CCCn2c(=O)oc3ccccc32)cc1 > 76.9 µM
Cc1nc2sc3c(c2c(=O)o1)CCC3 > 76.9 µM
Cc1cc(C)nc(N(C#N)Cc2ccccc2)n1 > 76.9 µM
COc1ccccc1-c1nnc(NC(=O)C(C)C)s1 > 76.9 µM
Cc1ccc2nc3c(cc(C(=O)NCc4cccnc4)c(=N)n3C(C)C)c(=O)n2c1 > 76.9 µM
Cc1ccc(NC(=O)c2ccccc2O)cc1 > 76.9 µM
COc1ccc(NC(=O)c2cnc(C)cn2)c2ncccc12 > 76.9 µM
COCC(=O)Nc1cccc(Br)c1 > 76.9 µM
Cc1cccc(C)c1NC(=O)Cn1c(=O)n(CCC(=O)NCc2ccco2)c(=O)c2sccc21 > 76.9 µM
O=C(O)CN1CCN(Cc2ccccc2)C1=O > 76.9 µM
COc1ccc(-n2c(=O)[nH]cc(C(=O)N3CCc4ccccc43)c2=O)cc1 > 76.9 µM
Cc1ccc(C(=O)N(c2ccccn2)C(C)c2ccco2)cc1 (stereo unspecified) > 76.9 µM
CC(Sc1ccccn1)C(=O)Nc1ccccc1 (stereo unspecified) > 76.9 µM
O=C(CSc1nc2ccccc2c(=O)[nH]1)N1CCCCCC1 > 76.9 µM
COc1ccc(OC)c(C(=O)COC(=O)c2cc(C)oc2C)c1 > 76.9 µM
O=C(c1cc2ccccc2oc1=O)N(Cc1ccc2c(c1)OCO2)Cc1ccco1 > 76.9 µM
Cc1n[nH]c(C)c1CCc1nc2c3ccccc3nc(SCC(N)=O)n2n1 > 76.9 µM
O=C(COC(=O)C1CC1)c1c[nH]c2ccccc12 > 76.9 µM
CCOC(=O)CNC(=O)COc1ccc(Cl)cc1Br > 76.9 µM
COC(=O)C1=C(C)N(C)C(=O)NC1c1ccccc1 (stereo unspecified) > 76.9 µM
O=C(Oc1ccc(OC(=O)N2CCCCC2)cc1)c1ccccc1 > 76.9 µM
O=C(NCC1COc2ccccc2O1)C1C2C=CC3(CN(Cc4ccccc4Cl)C(=O)C13)O2 (stereo unspecified) > 76.9 µM
O=C(O)C1C2C=CC(O2)C1C(=O)NCCCn1ccnc1 (stereo unspecified) > 76.9 µM
CCc1ccccc1NC1=NCC(=O)N1Cc1ccccc1 > 76.9 µM
Cc1ccccc1-n1c(=O)cc(NCC2CCCO2)[nH]c1=O (stereo unspecified) > 76.9 µM
Cc1nc2ccccn2c1-c1nnco1 > 76.9 µM
O=C(CCNc1n[nH]c(=O)[nH]c1=O)N1CCOCC1 > 76.9 µM
CC(C)CCNC(=O)CN(Cc1ccc2c(c1)OCO2)C(=O)Cn1nnc(-c2cccs2)n1 > 76.9 µM
CC1CCc2sc3nc(NCc4ccco4)n4ncnc4c3c2C1 (stereo unspecified) > 76.9 µM
O=C(NC1CCCCCC1)C1CCN(c2nc3ccccc3o2)CC1 > 76.9 µM
CCCN(CCC)CCSc1nc(O)c(C(C)C)c(=O)[nH]1 > 76.9 µM
Cc1cc(SCC(=O)c2ccccc2)nc(C)n1 > 76.9 µM
O=C(c1cccc(C(F)(F)F)c1)N1CCCC1 > 76.9 µM
Cn1c(=O)c(=O)n(C)c2cc(S(=O)(=O)N3CCCCC3)ccc21 > 76.9 µM
COc1nc(NC(C)(C)C)nc(Oc2ccc(=O)n(-c3ccccc3)n2)n1 > 76.9 µM
CN1CCC(NC(=O)Cc2c(F)cccc2Cl)CC1 > 76.9 µM
COC(=O)CSc1nc2c(c(=O)[nH]c(=O)n2C)n1CCC(C)C > 76.9 µM
Cc1cc(C)c(C#N)c(=N)o1 > 76.9 µM
CCOc1ccc(OCC)c(NC(=O)CN2CCN(c3cccc(C)c3C)CC2)c1 > 76.9 µM
CCn1c2ccccc2c2nnc(SCC(=O)Nc3ccc4c(c3)OCO4)nc21 > 76.9 µM
CC(=O)Cc1nsc(NC(=O)c2csc3c2CCCC3)n1 > 76.9 µM
CN(C)c1ccc(/C=[N+](\[O-])C2SC(=S)N(C)C2(C)C)cc1 (stereo unspecified) > 76.9 µM
Cc1ccc(Nc2nc(C)c(CCC(C)C)c(=O)[nH]2)cc1 > 76.9 µM
COCC(C)NC(=O)CCS(=O)(=O)c1nc(-c2ccc(OC)cc2)cc(C(F)(F)F)n1 (stereo unspecified) > 76.9 µM
CCOC(=O)c1cccc(NC(=O)C2CCCN(S(=O)(=O)c3c(C)n[nH]c3C)C2)c1 (stereo unspecified) > 76.9 µM
Cc1nc(CSc2nnc3scc(-c4ccccc4)n23)cs1 > 76.9 µM
Cc1noc(C)c1S(=O)(=O)N(CC(=O)O)c1ccc2c(c1)OCO2 > 76.9 µM
O=C(CCCC(=O)N(CC(=O)NC1CCCC1)Cc1ccccc1Cl)Nc1ccccn1 > 76.9 µM
O=C(CS(=O)(=O)Cc1ccccc1)NCc1ccc2c(c1)OCO2 > 76.9 µM
O=C(Oc1ccccc1C(=O)N1CCOCC1)c1ccccc1 > 76.9 µM
CC(C)(C)c1ccccc1NC(=O)c1ccco1 > 76.9 µM
COc1ccc(C(O)P(=O)(O)CCc2ccccc2)cc1 (stereo unspecified) > 76.9 µM
O=C(O)c1cccc(NC(=O)C2CC(=O)N(Cc3ccccc3)C2)c1 (stereo unspecified) > 76.9 µM
CCOc1ccc2cc(S(=O)(=O)N3CCOCC3)ccc2c1 > 76.9 µM
Cc1nnc2sc(-c3ccccn3)nn12 > 76.9 µM
O=C(NCCCN1CCCCCC1)C1CC(=O)N(CCc2ccccc2)C1 (stereo unspecified) > 76.9 µM
